Drawing on patent publication US12577196B2 (priority 2019, dated 2026), this text covers MIC for 2 molecules.

Holding throughout (test): microbe, parasite or virus in culture
Experiment [1] relates to Saccharomyces cerevisiae ATCC-9763 Fluconazole resistant (20 G). Conditions: ATCC9763.
Experiment [2] deals with Candida albicans ATCC-10231 Voriconazole resistant (20 G). The note with it: ATCC10231.
For experiment [3], the system named is Candida albicans ATCC-10231 Fluconazole resistant (20 G). Conditions: ATCC10231.

`Cc1ccc(C(C)C)cc1OC(=O)C[N+](C)(C)CCCCCCCCCC[N+](C)(C)CC(=O)Oc1cc(C(C)C)ccc1C` [Formula IV, N1,N10-bis(2-(5-isopropyl-2-methylphenoxy)−2-oxoethyl)-N1,N1,N10,N10-tetramethyldecane-1,10-diaminium dichloride] showed an MIC in experiment [1] of 0.98 µg/mL.

On to `Cc1ccc(C(C)C)c(OC(=O)C[N+](C)(C)CCCCCCCCCC[N+](C)(C)CC(=O)Oc2cc(C)ccc2C(C)C)c1` [Formula V, N1,N10-bis(2-(2-isopropyl-5-methylphenoxy)−2-oxoethyl)-N1,N1,N10,N10-tetramethyldecane-1,10-diaminium dichloride], for which the results for the MIC in experiment [2] and in experiment [3] were 3.9 µg/mL and 7.8 µg/mL, respectively.
